The list shows a part of the results.
Experiments:
Experiment in all cases: glycan array binding signal (z-score within array); higher = stronger binding
Conditions in all cases: glycan notation: IUPAC condensed, linker removed
[1] = biological target: Gal(b1-4)GlcNAc(b1-3)Gal(b1-3)GlcNAc
In short: (§1)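 Glycan array data came from 3228 arrays in the Consortium for Functional Glycomics database, and only arrays with an available protein sequence were kept. Glycan names were put into IUPAC-condensed notation, and columns mapping to the same glycan were averaged. The binding signal is a within-array Z-score, averaged across arrays of one protein sequence run at different concentrations or buffers and across linkers. A negative Z-score can be read as non-binding.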

[2] = biological target: Gal(b1-4)GlcNAc(b1-3)Gal(b1-4)Glc
In short: as §1

[3] = biological target: Gal(b1-4)GlcNAc(b1-3)Gal(b1-4)GlcNAc
In short: as §1

[4] = biological target: Gal(b1-4)GlcNAc(b1-3)Gal(b1-4)GlcNAc(b1-2)Man(a1-3)[Gal(b1-4)GlcNAc(b1-3)Gal(b1-4)GlcNAc(b1-2)Man(a1-6)]Man(b1-4)GlcNAc(b1-4)GlcNAc
In short: as §1

[5] = biological target: Gal(b1-4)GlcNAc(b1-3)Gal(b1-4)GlcNAc(b1-2)Man(a1-3)[Gal(b1-4)GlcNAc(b1-3)Gal(b1-4)GlcNAc(b1-2)Man(a1-6)]Man(b1-4)GlcNAc(b1-4)[Fuc(a1-6)]GlcNAc
In short: as §1

[6] = biological target: Gal(b1-4)GlcNAc(b1-3)Gal(b1-4)GlcNAc(b1-2)[Gal(b1-4)GlcNAc(b1-3)Gal(b1-4)GlcNAc(b1-6)]Man(a1-6)[Gal(b1-4)GlcNAc(b1-3)Gal(b1-4)GlcNAc(b1-2)Man(a1-3)]Man(b1-4)GlcNAc(b1-4)GlcNAc
In short: as §1

[7] = biological target: Gal(b1-4)GlcNAc(b1-3)Gal(b1-4)GlcNAc(b1-2)[Gal(b1-4)GlcNAc(b1-3)Gal(b1-4)GlcNAc(b1-6)]Man(a1-6)[Gal(b1-4)GlcNAc(b1-3)Gal(b1-4)GlcNAc(b1-2)Man(a1-3)]Man(b1-4)GlcNAc(b1-4)[Fuc(a1-6)]GlcNAc
In short: as §1

[8] = biological target: Gal(b1-4)GlcNAc(b1-3)Gal(b1-4)GlcNAc(b1-3)Gal(b1-4)GlcNAc
In short: as §1

[9] = biological target: Gal(b1-4)GlcNAc(b1-3)Gal(b1-4)GlcNAc(b1-3)Gal(b1-4)GlcNAc(b1-2)Man(a1-3)[Gal(b1-4)GlcNAc(b1-3)Gal(b1-4)GlcNAc(b1-3)Gal(b1-4)GlcNAc(b1-2)Man(a1-6)]Man(b1-4)GlcNAc(b1-4)GlcNAc
In short: as §1

[10] = biological target: Gal(b1-4)GlcNAc(b1-3)Gal(b1-4)GlcNAc(b1-3)Gal(b1-4)GlcNAc(b1-2)Man(a1-3)[Gal(b1-4)GlcNAc(b1-3)Gal(b1-4)GlcNAc(b1-3)Gal(b1-4)GlcNAc(b1-2)Man(a1-6)]Man(b1-4)GlcNAc(b1-4)[Fuc(a1-6)]GlcNAc
In short: as §1

[11] = biological target: Gal(b1-4)GlcNAc(b1-3)Gal(b1-4)GlcNAc(b1-3)Gal(b1-4)GlcNAc(b1-2)[Gal(b1-4)GlcNAc(b1-3)Gal(b1-4)GlcNAc(b1-3)Gal(b1-4)GlcNAc(b1-6)]Man(a1-6)[Gal(b1-4)GlcNAc(b1-3)Gal(b1-4)GlcNAc(b1-3)Gal(b1-4)GlcNAc(b1-2)Man(a1-3)]Man(b1-4)GlcNAc(b1-4)[Fuc(a1-6)]GlcNAc
In short: as §1

[12] = biological target: Gal(b1-4)GlcNAc(b1-3)Gal(b1-4)GlcNAc(b1-3)Gal(b1-4)GlcNAc(b1-3)Gal(b1-4)GlcNAc(b1-2)Man(a1-3)[Gal(b1-4)GlcNAc(b1-3)Gal(b1-4)GlcNAc(b1-3)Gal(b1-4)GlcNAc(b1-3)Gal(b1-4)GlcNAc(b1-2)Man(a1-6)]Man(b1-4)GlcNAc(b1-4)GlcNAc
In short: as §1

[13] = biological target: Gal(b1-4)GlcNAc(b1-3)Gal(b1-4)GlcNAc(b1-3)Gal(b1-4)GlcNAc(b1-3)Gal(b1-4)GlcNAc(b1-2)Man(a1-3)[Gal(b1-4)GlcNAc(b1-3)Gal(b1-4)GlcNAc(b1-3)Gal(b1-4)GlcNAc(b1-3)Gal(b1-4)GlcNAc(b1-2)Man(a1-6)]Man(b1-4)GlcNAc(b1-4)[Fuc(a1-6)]GlcNAc
In short: as §1

[14] = biological target: Gal(b1-4)GlcNAc(b1-3)Gal(b1-4)GlcNAc(b1-3)Gal(b1-4)GlcNAc(b1-3)Gal(b1-4)GlcNAc(b1-2)[Gal(b1-4)GlcNAc(b1-3)Gal(b1-4)GlcNAc(b1-3)Gal(b1-4)GlcNAc(b1-3)Gal(b1-4)GlcNAc(b1-6)]Man(a1-6)[Gal(b1-4)GlcNAc(b1-3)Gal(b1-4)GlcNAc(b1-3)Gal(b1-4)GlcNAc(b1-3)Gal(b1-4)GlcNAc(b1-2)Man(a1-3)]Man(b1-4)GlcNAc(b1-4)[Fuc(a1-6)]GlcNAc
In short: as §1

[15] = biological target: Gal(b1-4)GlcNAc(b1-3)Gal(b1-4)GlcNAc(b1-3)Gal(b1-4)GlcNAc(b1-3)Gal(b1-4)GlcNAc(b1-3)Gal(b1-4)GlcNAc(b1-2)Man(a1-3)[Gal(b1-4)GlcNAc(b1-3)Gal(b1-4)GlcNAc(b1-3)Gal(b1-4)GlcNAc(b1-3)Gal(b1-4)GlcNAc(b1-3)Gal(b1-4)GlcNAc(b1-2)Man(a1-6)]Man(b1-4)GlcNAc(b1-4)GlcNAc
In short: as §1

[16] = biological target: Gal(b1-4)GlcNAc(b1-3)Gal(b1-4)GlcNAc(b1-3)Gal(b1-4)GlcNAc(b1-3)Gal(b1-4)GlcNAc(b1-3)Gal(b1-4)GlcNAc(b1-2)Man(a1-3)[Gal(b1-4)GlcNAc(b1-3)Gal(b1-4)GlcNAc(b1-3)Gal(b1-4)GlcNAc(b1-3)Gal(b1-4)GlcNAc(b1-3)Gal(b1-4)GlcNAc(b1-2)Man(a1-6)]Man(b1-4)GlcNAc(b1-4)[Fuc(a1-6)]GlcNAc
In short: as §1

[17] = biological target: Gal(b1-4)GlcNAc(b1-3)Gal(b1-4)GlcNAc(b1-3)Gal(b1-4)GlcNAc(b1-3)Gal(b1-4)GlcNAc(b1-3)Gal(b1-4)GlcNAc(b1-2)[Gal(b1-4)GlcNAc(b1-3)Gal(b1-4)GlcNAc(b1-3)Gal(b1-4)GlcNAc(b1-3)Gal(b1-4)GlcNAc(b1-3)Gal(b1-4)GlcNAc(b1-6)]Man(a1-6)[Gal(b1-4)GlcNAc(b1-3)Gal(b1-4)GlcNAc(b1-3)Gal(b1-4)GlcNAc(b1-3)Gal(b1-4)GlcNAc(b1-3)Gal(b1-4)GlcNAc(b1-2)Man(a1-3)]Man(b1-4)GlcNAc(b1-4)[Fuc(a1-6)]GlcNAc
In short: as §1

[18] = biological target: Gal(b1-4)GlcNAc(b1-3)Gal(b1-4)GlcNAc(b1-3)Gal(b1-4)GlcNAc(b1-3)Gal(b1-4)GlcNAc(b1-3)Gal(b1-4)GlcNAc(b1-3)Gal(b1-4)GlcNAc(b1-2)Man(a1-3)[Gal(b1-4)GlcNAc(b1-3)Gal(b1-4)GlcNAc(b1-3)Gal(b1-4)GlcNAc(b1-3)Gal(b1-4)GlcNAc(b1-3)Gal(b1-4)GlcNAc(b1-3)Gal(b1-4)GlcNAc(b1-2)Man(a1-6)]Man(b1-4)GlcNAc(b1-4)GlcNAc
In short: as §1

[19] = biological target: Gal(b1-4)GlcNAc(b1-3)Gal(b1-4)GlcNAc(b1-3)GalNAc
In short: as §1

B1: Siglec-9 (Homo sapiens), Q9Y336 (protein)
chain: MLLLLLPLLWGRERAEGQTSKLLTMQSSVTVQEGLCVHVPCSFSYPSHGWIYPGPVVHGYWFREGANTDQDAPVATNNPARAVWEETRDRFHLLGDPHTKNCTLSIRDARRSDAGRYFFRMEKGSIKWNYKHHRLSVNVTALTHRPNILIPGTLESGCPQNLTCSVPWACEQGTPPMISWIGTSVSPLDPSTTRSSVLTLIPQPQDHGTSLTCQVTFPGASVTTNKTVHLNVSYPPQNLTMTVFQGDGTVSTVLGNGSSLSLPEGQSLRLVCAVDAVDSNPPARLSLSWRGLTLCPSQPSNPGVLELPWVHLRDAAEFTCRAQNPLGSQQVYLNVSLQSKATSGVTQGVVGGAGATALVFLSFCVIFVVVRSCRKKSARPAAGVGDTGIEDANAVRGSASQGPLTEPWAEDSPPDQPPPASARSSVGEGELQYASLSFQMVKPWDSRGQEATDTEYSEIKIHR
Question: With B1 as the binder, how does the “glycan array binding signal (z-score)” value [1] read?
Answer: 0.172

Question: And the “glycan array binding signal (z-score)” value [2]?
Answer: -0.032

Question: And the “glycan array binding signal (z-score)” value [3]?
Answer: -0.249

Question: What about the “glycan array binding signal (z-score)” value [4] of the same binder?
Answer: 0.358

Question: What about the “glycan array binding signal (z-score)” value [5] of the same binder?
Answer: -0.033

Question: And the “glycan array binding signal (z-score)” value [6]?
Answer: 0.123

Question: What about the “glycan array binding signal (z-score)” value [7] of the same binder?
Answer: -0.002

Question: And the “glycan array binding signal (z-score)” value [8]?
Answer: -0.247

Question: And the “glycan array binding signal (z-score)” value [9]?
Answer: 0.078

Question: And the “glycan array binding signal (z-score)” value [10]?
Answer: -0.013

Question: What about the “glycan array binding signal (z-score)” value [11] of the same binder?
Answer: 0.172

Question: What about the “glycan array binding signal (z-score)” value [12] of the same binder?
Answer: -0.292

Question: What about the “glycan array binding signal (z-score)” value [13] of the same binder?
Answer: 0.258

Question: What about the “glycan array binding signal (z-score)” value [14] of the same binder?
Answer: -0.059

Question: And the “glycan array binding signal (z-score)” value [15]?
Answer: -0.162

Question: And the “glycan array binding signal (z-score)” value [16]?
Answer: -0.149

Question: What about the “glycan array binding signal (z-score)” value [17] of the same binder?
Answer: 0.136

Question: What about the “glycan array binding signal (z-score)” value [18] of the same binder?
Answer: 0.009

Question: What about the “glycan array binding signal (z-score)” value [19] of the same binder?
Answer: -0.054
